From paper PMC12136788
The other results are listed elsewhere or left out.

T1: UNK ZnF1-3 (human, UniProt Q9C0B0 31-174)
T1 sequence: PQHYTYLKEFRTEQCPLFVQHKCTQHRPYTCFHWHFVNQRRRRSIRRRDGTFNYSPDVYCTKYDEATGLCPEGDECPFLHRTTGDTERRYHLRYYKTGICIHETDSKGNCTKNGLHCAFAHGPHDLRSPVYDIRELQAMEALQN

B1: 247050632_247051731_2416_CDS_ENSG00000153207_ENST00000391829|human|control|control (ssRNA)
RNA: GGGAGUUCUACAGUCCGACGAUCCAUAAUAUCAAGUAGCAAAUAAAUGGUAAUAGAGUGUUUGGCUGCUUCAGUAACGCCGUCUAAUAGGUACAUAUCAAGUACUGCAUGCAGACUAGCAGGAGGAUAUUUUCCUGUGCCUCCCAACAGAGGAUUGAGCAUCA
B2: chr13:3599227:3599228:-_ENSMUSG00000033799_ENSMUST00000096069|mus_hu|motif|central (ssRNA)
RNA: GGGAGUUCUACAGUCCGACGAUCCAAGUAUGCUUUUAUGAGCUGGUGGUGCCAUAGUUUUAGAUUCCCUGUAUCGAAAAGCGGCAAUUACAUAAGGACAGAUCUGUCUGGGUCGUUCAAUAACGGUGUUGCCUGAAAGUUCGUCAACAGAGGAUUGAGCAUCA
B3: 55030989_55033531_1519_3pUTR_ENSMUSG00000032307_ENSMUST00000059555|mouse|control|control (ssRNA)
RNA: GGGAGUUCUACAGUCCGACGAUCUUCUUUUUCUUUUAAGAUCUGAAGAUCACUGUGCAAAGGACUAUCAGAGUCAACCUUGUGUAGUUUGACAUGCCAGUCAUAUAAGCUGUCAUUUAUUAGCUCCACUGAAUAAAUCCCUGCCAACAGAGGAUUGAGCAUCA
B4: chr1:29344795:29344796:+_ENSG00000159023_ENST00000356093|hu_hu|FALSE|FALSE (ssRNA)
RNA: GGGAGUUCUACAGUCCGACGAUCGAGUUCUGGGUCGUAGUCUCCCAGUUCAGACUGGAUGGUGUAAGAACCUAAUAAUGCUAAGGUUGCAAAGGAACAGGGCAGACGUCCUGCAACUAUGUCCUGCCGAAGCUGAAGACAUAACAACAGAGGAUUGAGCAUCA
B5: chr5:108714581:108714582:-_ENSG00000198961_ENST00000361557|hu_hu|motif|central (ssRNA)
RNA: GGGAGUUCUACAGUCCGACGAUCUGAAAGACCAGUGUAUGCCUCUGCCUCUCUGUUUUCCAACUCAAAUACUGUAUUGCCGGAUGAUUCCUGGUAUCUACUACCUUCCACGACUUCUGCAGAAAGUUGAAGAUGGUCAUUAUCCAACAGAGGAUUGAGCAUCA
B6: chr12:73313434:73313435:-_ENSMUSG00000021087_ENSMUST00000021497|mus_mus|motif|central (ssRNA)
RNA: GGGAGUUCUACAGUCCGACGAUCCAUAUAUCCUAAGAGUACAGGAAGAGCCUCAAAACACCUGUCUCAAAGUUUGCCUCGGAGAUUAUGGUACCAGGAAAGGGAAACAAUCAAUUUGCAGUAACGAGGAAGGAGAGAGCUGUUCAACAGAGGAUUGAGCAUCA
B7: chr18:34758715:34758716:-_ENSMUSG00000003778_ENSMUST00000003876|mus_mus|FALSE|FALSE (ssRNA)
RNA: GGGAGUUCUACAGUCCGACGAUCACUGGUAUGUGUUUCCAUGGGAUUUCUUUCUCCCAGCACUGGCAAUUGACAAGGAAACUAGCCAAAAGCUGUACCAUUAUUCUACCAAAAACAUUCCCAGCCCCAAACAUCACAACCCUCCAACAGAGGAUUGAGCAUCA
B8: chr1:66480114:66480115:+_ENSMUSG00000015222_ENSMUST00000024639|mus_hu|mus_mus_mus_hu_True|1_58 (ssRNA)
RNA: GGGAGUUCUACAGUCCGACGAUCUGGCCUGUGGCGGAUGUUCUUCAGAGAGCCACAUUUGGAUGUCACAUGGCUUAAGUCUAUCUUCUUGGUAACAAUUUGUACCUGCCCCCCUUUAGGCUGGUAUUUGAUGUUGUCAGUUGACAACAGAGGAUUGAGCAUCA
B9: chr11:94609001:94609002:+_ENSG00000166025_ENST00000433060|hu_hu|FALSE|FALSE (ssRNA)
RNA: GGGAGUUCUACAGUCCGACGAUCAGAGAUGUGAACACAUAGGAGGCAUGGCAAGAGAAUUGAUUUUUAAAAAUCUGUGUGCUAAUGAGGAUGAUCCCCCCUUGAAGUGGACACUUUGAGAGGCUCUGAGGCCAAAGACUCAUUCAACAGAGGAUUGAGCAUCA
B10: chr3:179287964:179287965:+_ENSG00000136518_ENST00000429709|hu_hu|hu_hu_hu_mus_True|58_108 (ssRNA)
RNA: GGGAGUUCUACAGUCCGACGAUCCUUUAGAGGUGAAAUGGCCUCCAUGUUCUCCCUGGGCACGCGGAGGGCAUUGGUAUCUAUGUAGUAGGUGGGCCCGCCCUGCUUGCCUUUGUCACCAUCAAUCUCCAUCAUUGUACUUCCCAACAGAGGAUUGAGCAUCA
B11: chr1:172123744:172123745:-_ENSMUSG00000026667_ENSMUST00000150821|mus_mus|motif|central (ssRNA)
RNA: GGGAGUUCUACAGUCCGACGAUCCAGCUCGCUGAAACACAGUGCUCACACUUUAUAGGGAGGUGGAAAUAAAGUCCUCUGCGGUUCAGCAAGAAAAUAGACAUCUGAAAGACUGAUAAUGAAAAAAGAACAUCUUGGUACUAACAACAGAGGAUUGAGCAUCA
B12: chr3:110853029:110853030:+_ENSG00000177707_ENST00000485303|hu_hu|FALSE|FALSE (ssRNA)
RNA: GGGAGUUCUACAGUCCGACGAUCUGGUUGCUAAACAUACCACUCCCUCCUGGAAAUUACGGAACCAUCUACAUGUGAAACUAAGUCAUCUUCGUUUUCAUCAUAAUGUUCAUCACUGACAAACUUCAUUCCCAUUUUUAGAUCCAACAGAGGAUUGAGCAUCA
B13: chr8:95500983:95500984:-_ENSG00000164944_ENST00000437199|hu_hu|hu_hu_hu_mus_True|8_108 (ssRNA)
RNA: GGGAGUUCUACAGUCCGACGAUCAGAAGGAUUUUUACGAGUAAAGGACCGUACAUGACGGCCUCUACCACUGCCUCCACUAACAAACUUUCCUCUCGAGCCUCCACUGCCGCUAUUUGUACUAGCCCCAGGAAGGUCCAGGCCCAACAGAGGAUUGAGCAUCA
B14: 100488932_100489052_434_3pUTR_ENSMUSG00000008763_ENSMUST00000008907|mouse|control|control (ssRNA)
RNA: GGGAGUUCUACAGUCCGACGAUCAUUAUUAUUAUUAUUUACGAGGCCACCUCUUUCACGCUCUCCGAUUACAUCCAGAAGCCCGGGUGACCUCCCAAGCGAUCGUUGGUUUCUGUCCCGUCAGAUCUUCUCGCCAUUUGGCUCCAACAGAGGAUUGAGCAUCA
B15: 10575863_10575983_2175_3pUTR_ENSMUSG00000024668_ENSMUST00000025570|mouse|control|control (ssRNA)
RNA: GGGAGUUCUACAGUCCGACGAUCAAUAGAGCAAAGGCUUGGACUCAUAACCACCAUGCUACACUGUACACCAUGCUACCCUGCAUCUUCUUACCAGAGCUACAGUGGGGCCUGGGGGAUUCUGGGUGGAUCCUCACUUUGGGACAACAGAGGAUUGAGCAUCA
B16: chr7:108213676:108213677:+_ENSG00000128590_ENST00000249356|hu_mus|motif|central (ssRNA)
RNA: GGGAGUUCUACAGUCCGACGAUCUCCAUGAAAUCUAUUUUCAGUCUGUACUGUGUGUCGAUUGGUGGUAUCAAAGCCACGGAAAGAAAACAUUUUCUCCAUGUCUUCAAACAUAUCAUCAAACAAUCCGCCUCCAAAAGAAAACAACAGAGGAUUGAGCAUCA
B17: chrX:71549762:71549763:+_ENSMUSG00000019087_ENSMUST00000019231|mus_mus|mus_mus_mus_hu_False|18_98 (ssRNA)
RNA: GGGAGUUCUACAGUCCGACGAUCAAACCCGUGUACUCACUCUUAACAGCACAACAUCACCAGAAAACGAUAACGACAGCCAAGCAGGACAGACAGUUAAGUAGUACUUCCACACUCCGCAAAUUCAGGAGCCCUAUAACCUUACAACAGAGGAUUGAGCAUCA
B18: 127824504_127824753_2221_3pUTR_ENSMUSG00000014498_ENSMUST00000014642|mouse|control|control (ssRNA)
RNA: GGGAGUUCUACAGUCCGACGAUCUGGAGGGCAGUGCGGCCCCGGAGGUCAGCAGCAUCAGCCGUGGAUCCCUUCUCUAGCAGCAGAUGUACACAGUCCACAUGGCCAUUCAUAAUGGCCAGCAUCAGUGGGGUUUGUCCAUAGCAACAGAGGAUUGAGCAUCA
B19: chr12:74934348:74934349:+_ENSG00000253719_ENST00000519948|hu_hu|motif|central (ssRNA)
RNA: GGGAGUUCUACAGUCCGACGAUCUUAUUUUAGCUCUUGCCAAGGUUUGAUUUUUUUUAAGUUAAUGCAAUUCUUUAAGACGGAUCUGUAACUAGGCCCCAAGCCUGAUCAGGACAACUCUAGGACAAGGCAGUAACAGUUCCACAACAGAGGAUUGAGCAUCA
B20: chr8:98817645:98817646:+_ENSG00000104341_ENST00000445593|hu_mus|FALSE|FALSE (ssRNA)
RNA: GGGAGUUCUACAGUCCGACGAUCAAUGCACAUGUUGGCAUCAUCCAUGAACUCAAACUCCCCUCCUAGUUCAGAGCCUGAAAAGUGAUACUGAUUGGGAUCUGCCAGGGCACUCAGCAGGAUCAGCAGGACCACAGCAUUGAUCAACAGAGGAUUGAGCAUCA
B21: chr2:202488911:202488912:-_ENSG00000155755_ENST00000286196|hu_mus|hu_hu_hu_mus_False|28_88 (ssRNA)
RNA: GGGAGUUCUACAGUCCGACGAUCAUUGAAACAUUUUUCAUAAUCUCAGAGAUGUUUUCAGCAUUAUGUAACAAAAGCUCAAUUGUAAAUACAUGUAUCUUAUAAAAAUAAAAAUACAAACACGAGUGGGGAGCGCAGGCGCCACAACAGAGGAUUGAGCAUCA
B22: chr1:225977404:225977405:+_ENSG00000143742_ENST00000304786|hu_hu|FALSE|FALSE (ssRNA)
RNA: GGGAGUUCUACAGUCCGACGAUCAAUACAUGGAUCUGACAAAAUGGUUACAUUUAAUGUUCUUUUAAAGAAAGAUGAACUAAAUUUAAGAAGAAUUGGUUUUUCCUAAUAUCUCAUUUUCAAAUUACUGAUACAAAUUUGCCACAACAGAGGAUUGAGCAUCA

These binders were tested against T1, UNK ZnF1-3 (assay: nsRBNS (natural sequence RNA bind-n-seq); RBNS binding buffer (assumed for nsRBNS): 25 mM Tris pH 7.5, 150 mM KCl, 3 mM MgCl2, 0.01% Triton X-100, 500 ug/ml BSA, 20 U/ml SUPERase-In, 4 C; UNK is unkempt and MSI1 is Musashi-1; names of the RNAs are library labels; protein concentration not given here; high values mean tight binding).

In order of falling binding signal:
1. B9  2.4 enrichment R
2. B6  2.3 enrichment R
3. B11  1.77 enrichment R
4. B17  1.77 enrichment R
5. B18  1.75 enrichment R
6. B15  1.5 enrichment R
7. B7  1.29 enrichment R
8. B20  1.29 enrichment R
9. B1  1.15 enrichment R
10. B13  0.973 enrichment R
11. B2  0.963 enrichment R
12. B19  0.895 enrichment R
13. B21  0.833 enrichment R
14. B4  0.788 enrichment R
15. B3  0.782 enrichment R
16. B12  0.781 enrichment R
17. B10  0.766 enrichment R
18. B16  0.743 enrichment R
19. B22  0.69 enrichment R
20. B5  0.675 enrichment R
21. B8  0.426 enrichment R
22. B14  0.322 enrichment R
